Test results from paper PMC12040169 (PLOS Biology, 2025).
The list shows a part of the results.

Each compound was assayed on T1, C. trachomatis L2/434/Bu expressing GFP (CTL2-GFP). Conditions: total inclusion area; 28.5 h, 10 µM; inhibitor.
T1 construct: L2/434/Bu GFP intracellular growth in HeLa cells
Set-up: species or system HeLa; C. trachomatis total inclusion area by high-content imaging, normalised to DMSO
Summary of the method: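 Following bulk GFP and resorufin fluorescence reads, infected cells were fixed, Hoechst-stained and imaged on a high-content platform. Inclusion total area and number per well served as growth proxies; nuclei counts indicated host viability. MICs were derived as for the fluorescence assay.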

Structure (SMILES) | % of control remaining
O=C1CCCC[C@]2(CN(Cc3ccccc3)C[C@H]2c2cccnc2)N1 [CBK283342] | 75.4917
CC(C)(CNC(=O)CN1CCOCC1)NC(=O)OC(C)(C)C [CBK089350] | 53.2145
O=C(Cn1ccnc1)NC(Cc1cccs1)c1nccs1 (centres unmarked) [CBK285092] | 103.869
O=C(Nc1ccc(OCc2nc3ccccc3s2)cc1)c1cccc(I)c1 [CBK267843] | 80.6333
Cc1cc(NS(=O)(=O)c2ccc(F)cc2)n(C)n1 [CBK051021] | 88.1362
CCCC/N=C(\NS(=O)(=O)c1ccc(C)cc1)OCC [CBK022731] | 76.4043
COc1ccc(-c2sc(C(=O)O)c(C)c2C#N)cc1 [CBK019922] | 63.2489
Cc1ccc(OC(C)C(=O)Nc2cc(C(C)(C)C)on2)cc1C (centres unmarked) [CBK288251] | 85.9482
Cc1ccc(-c2nnc(CNC(=O)Cc3ccccc3Cl)o2)s1 [CBK284648] | 99.3944
CN(C)CCN(Cc1ccccc1)C(=O)NCc1ccc(C#N)cc1 [CBK155097] | 103.422
O=C(Cc1cc(C(=O)O)c2ccccc2n1)Nc1ccccc1 [CBK268227] | 115.293
COC[C@@H]1CCCN1S(=O)(=O)c1ccc(Cl)c(Cl)c1 [CBK044313] | 73.3444
O=C(C1CCCN(S(=O)(=O)c2ccc(F)cc2)C1)N(Cc1ccccc1)Cc1ccccc1 (centres unmarked) [CBK267652] | 66.5954
O=C(Cn1cncn1)N[C@H]1C2CCCCC2[C@@H]1c1ccccc1 (some centres unmarked) [CBK283011] | 103.616
CSCCCNC(=O)N1CCCC(C(=O)O)C1 (centres unmarked) [CBK161343] | 41.5532
CC(C)Cn1c(CN2CCOCC2)nc2c1c(=O)n(C)c(=O)n2C [CBK305913] | 80.4417
Cn1c(=O)c2c(ncn2CC(=O)Nc2ccc(C#N)cc2)n(C)c1=O [CBK133466] | 85.1477
CCCc1oc(C(=O)O)cc1CN1CCCCC1 [CBK267973C] | 86.1298
Cc1nc2nc(N)nn2c(C)c1CCC(=O)OCc1cccc(C#N)c1 [CBK306083] | 49.5156
Cc1c(Cl)cccc1S(=O)(=O)Nc1nc(C(C)Sc2nccn2C)ns1 (centres unmarked) [CBK200052] | 105.662
CCc1nc2cccnc2n1CCNC(=O)c1cccs1 [CBK283638] | 77.7774
O=C(NC(c1ccc(Cl)cc1)c1cccnc1)C1CCN(C(=O)C2CC2)CC1 (centres unmarked) [CBK059686] | 98.7401
Cc1nc2c(c(=O)[nH]1)CC[C@@H]1CN(C(=O)c3cc(F)cc(F)c3)C[C@H]21 [CBK284418] | 90.3373
Cc1noc(-c2ccc3c(c2O)OCCO3)c1-c1ccc(Cl)cc1 [CBK018086] | 0.157
CCc1nn(CC(=O)N2CCCCC2)c(=O)c2cc3occc3n12 [CBK283674] | 78.8783
Cc1ccc(C(C)C)c(OCCSc2nc3c(N)ncnc3[nH]2)c1 [CBK266941] | 109.606
CCOC(=O)Cc1csc(NS(=O)(=O)c2cc(Cl)c(Cl)s2)n1 [CBK000847] | 105.395

Structure (SMILES) | % of control remaining
O=C(c1ccc(F)cc1)c1cn(CCO)c2c(Cl)nccc12 [CBK285129] | 104.054
CCOC(=O)C1CCN(Cc2c(O)c3ccccc3oc2=O)CC1 [CBK266035] | 137.975
Cc1sc2c(c1C)c(=O)nc1scc(CC(=O)NCCO)n12 [CBK266726] | 100.25
COc1nccnc1-c1cnn(C)c1 [CBK107069] | 95.5304
Cc1nc(CCNCc2c(C)nn(C)c2N2CCOCC2)cs1 [CBK304054] | 48.8551
COc1cccc(-c2nc(SCC(=O)Nc3ccc([N+](=O)[O-])cc3)[nH]c(=O)c2C#N)c1 [CBK264912] | 127.029
CCOc1ccc(C(=O)NC(=S)Nc2ncccc2C)cc1[N+](=O)[O-] [CBK264128] | 101.804
Cc1ccc(C(=O)C2=C(O)C(=O)N(CCCN3CCOCC3)C2c2ccccn2)o1 (centres unmarked) [CBK269187] | 102.752
CC(=O)Oc1cccc(C(=O)O)c1C [CBK038235] | 33.0725
CC(C)C(=O)N1CCCC(n2c(=O)oc3ccc(Cl)cc32)C1 (centres unmarked) [CBK282890] | 100.288
Cc1ccc(NC(=O)CSc2cc(-n3nc(C)cc3C)ncn2)cc1 [CBK287820] | 78.2348
O=C(O)Cc1ccc(OCC(=O)NCCCSc2ccccc2)cc1 [CBK296630] | 100.627
O=C(O)/C=C/c1cn([C@H]2C[C@@H](O)[C@@H](CO)O2)c(=O)[nH]c1=O [CBK201174] | 120.292
Nc1c(Cc2c(Cl)cccc2Cl)c(=O)n2n1CCCC2 [CBK089337] | 98.4228
Cc1cc(OCC(=O)N2CCCc3c(cnn3C)C2)ccc1Cl [CBK285277] | 102.009
COc1ccc(C(=O)NCC2(c3ccc(OC)c(OC)c3)CCCCC2)c(OC)c1 [CBK067049] | 91.4092
Cn1c(=O)c2c(ncn2CCCn2cnc3c2c(=O)n(C)c(=O)n3C)n(C)c1=O [CBK268933] | 118.401
Cc1cn2c3c(=O)n(CCN4CCCCC4)c(=O)n(C)c3nc2n1CC1CCCO1 (centres unmarked) [CBK269820] | 98.0211
O=C(NCc1cccnc1)c1cc2c(ccc3ccccc32)oc1=O [CBK270195] | 96.8342
COc1ccc(C(CC(=O)O)C(=O)O)cc1OC (centres unmarked) [CBK261943] | 86.5612
O=C(CC1C(=O)Nc2ncnn21)Nc1ccccc1 (centres unmarked) [CBK288071] | 95.6754
CCCOC1CCCN(C(=O)c2cc(Cl)c[nH]2)C1 (centres unmarked) [CBK304802] | 87.7473
CC(NC(=O)C1(Cn2ccnc2)CC1)c1nncn1C(C)C (centres unmarked) [CBK306682] | 84.4354
COc1ccc(S(=O)(=O)Nc2ccc(S(=O)(=O)Nc3nccs3)cc2)c([N+](=O)[O-])c1 [CBK266801] | 4.26
COc1ccc(Cn2nc(NC(C)=O)c3ccccc32)cc1 [CBK048200] | 100.751
CCOc1cc(NC2CCN(C(=O)C3CCCC3)C2)ncn1 (centres unmarked) [CBK304137] | 45.6736
COc1ccc(CC(=O)N2CCCCC2c2cc(-c3ccc(F)cc3)cc(C)n2)cc1OC (centres unmarked) [CBK285858] | 90.6413

Structure (SMILES) | % of control remaining
c1ccc(Oc2ccccc2-c2ccc(Nc3ccc(N4CCOCC4)cc3)nc2)cc1 [CBK036913] | 127.748
CC(=O)Nc1ccc(-c2cccc(COC3CCN(C(=O)Cc4ccc(Cl)c(Cl)c4)CC3)c2)cc1 [CBK149487] | 82.5561
O=C(O)c1ccc(NS(=O)(=O)c2ccc3c(c2)OCCO3)cc1 [CBK296129] | 105.271
CC(C)(CSc1ncccn1)NS(=O)(=O)c1ccccc1 [CBK268282] | 112.296
COc1ccccc1OCCOc1ccc(/C=N/n2cnnc2)cc1 [CBK263295] | 50.1281
OC(CN1CCC(O)(c2ccc(F)cc2)CC1)c1ccccc1 (centres unmarked) [CBK282489] | 116.419
Cc1c(C(=O)Nc2ccc(OCc3ccccc3F)cc2)sc2nc[nH]c(=O)c12 [CBK285834] | 105.225
Cc1ccsc1C(C)NC1CCCN(c2ccn(C)n2)C1=O (centres unmarked) [CBK306419] | 112.617
O=C1c2cccc3cccc(c23)C(=O)N1CCCSc1nnc[nH]1 [CBK268894] | 106.188
O=C(O)CCC(=O)N1CC[C@H]2NC(=O)N(c3ccc(F)cc3)C(=O)[C@H]21 [CBK289329] | 100.156
N#C/C(=C\c1ccc(-c2cccc(C(=O)O)c2)o1)c1nc2ncc(Br)cc2[nH]1 [CBK265054] | 105.657
Cc1ccc(CC(=O)N2CCC(Cc3ccc(-c4cccc(C)c4)cc3)(C(N)=O)CC2)cc1 [CBK285906] | 108.836
O=C(Nc1ccc2c(c1)OCCO2)c1cnc(-c2ccc(Cl)cc2)c(-c2cccnc2)c1 [CBK037528] | 99.5066
COc1ccc(-c2cc(C(F)(F)F)c3c(n2)sc2c(=O)cc(O)[nH]c23)cc1OC [CBK270201] | 117.668
O=C(CC1CCN(C(=O)CC2CCCCC2)CC1)Nc1ccccc1CN1CCCC1 [CBK286046] | 89.5666
O=[N+]([O-])c1ccc(CSc2nnc(-c3cccnc3)n2Cc2ccco2)cc1 [CBK264580] | 101.745
CN1CCN(C2Cc3ccccc3Sc3c(O)cccc32)CC1 (centres unmarked) [CBK026200G] | 90.9574
Nc1ncc(-c2ccsc2)nc1NCc1ccncc1 [CBK063614] | 158.281
Cn1c(=O)c2c([nH]c(=S)n2CCCc2ccccc2)n(C)c1=O [CBK288411] | 46.4652
O=C(O)c1cccc(NS(=O)(=O)c2ccc(-c3cc(C(F)(F)F)on3)s2)c1 [CBK155722] | 90.5634
CN1CC2(CCCN(Cc3nnc(-c4cccnc4)o3)C2)OC1=O (centres unmarked) [CBK306888] | 50.4351
COCC(=O)N[C@H]1CCN2C(=O)c3cc(-c4ccc(F)cc4F)ccc3NC(=O)[C@@H]2C1 [CBK289561] | 99.2073
CCC(c1ccc(F)cc1)N(C)C(=O)Cn1cccc(C(=O)Nc2ccc(F)cc2)c1=O (centres unmarked) [CBK286061] | 100.429
CN(C(=O)c1ccccc1)[C@]1(C)C2CC(C[C@@H]2O)C1(C)C (some centres unmarked) [CBK010498] | 100.317
Cc1c(C(=O)NCCN2CCCC(C(N)=O)C2)[nH]c2c(F)cccc12 (centres unmarked) [CBK306877] | 65.5664
COc1cccc(CN2CCCC3(C2)c2[nH]c4ccccc4c2CCN3C(C)=O)c1 (centres unmarked) [CBK039634] | 100.284
